Numbering of substitutions follows the chain as printed; changes in the protein carry UniProt numbers. Some of the results follow.
T1: RBFOX1 RRM RbFoxmut (Fox-RRM*) (Homo sapiens, UniProt Q9NWB1 109-208, R118D;E147R;N151S;E152T)
T1 sequence: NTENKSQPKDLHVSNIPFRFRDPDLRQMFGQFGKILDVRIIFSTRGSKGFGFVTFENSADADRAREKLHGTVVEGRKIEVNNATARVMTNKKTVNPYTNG

B1: CAGCCCA (DNA:RNA)
RNA: GGGAGACCGGAAUUCAGAUUGUCCCAGCCCAUUAAAUCCCGUCGUAGCCACCA
DNA 1: CAATCTGAATTCCGGTCTCCC
DNA 2: TGGTGGCTACGACGGGATT
B2: CCUGGGU (DNA:RNA)
RNA: B1 RNA with A26C, G27U, C28G, C29G, C30G, A31U
DNA 1: CAATCTGAATTCCGGTCTCCC
DNA 2: TGGTGGCTACGACGGGATT
B3: UUGGAGC (DNA:RNA)
RNA: B1 RNA with C25U, A26U, C28G, C29A, C30G, A31C
DNA 1: CAATCTGAATTCCGGTCTCCC
DNA 2: TGGTGGCTACGACGGGATT
B4: AUUCCCU (DNA:RNA)
RNA: B1 RNA with C25A, A26U, G27U, A31U
DNA 1: CAATCTGAATTCCGGTCTCCC
DNA 2: TGGTGGCTACGACGGGATT
B5: AAUUUCC (DNA:RNA)
RNA: B1 RNA with C25A, G27U, C28U, C29U, A31C
DNA 1: CAATCTGAATTCCGGTCTCCC
DNA 2: TGGTGGCTACGACGGGATT
B6: CUCAGAG (DNA:RNA)
RNA: B1 RNA with A26U, G27C, C28A, C29G, C30A, A31G
DNA 1: CAATCTGAATTCCGGTCTCCC
DNA 2: TGGTGGCTACGACGGGATT
B7: UCAUAGC (DNA:RNA)
RNA: GGGAGACCGGAAUUCAGAUUGUCCUCAUAGCUUAAAUCCCGUCGUAGCCACCA
DNA 1: CAATCTGAATTCCGGTCTCCC
DNA 2: TGGTGGCTACGACGGGATT
B8: CGGUAAU (DNA:RNA)
RNA: B1 RNA with A26G, C28U, C29A, C30A, A31U
DNA 1: CAATCTGAATTCCGGTCTCCC
DNA 2: TGGTGGCTACGACGGGATT
B9: CUAGGUG (DNA:RNA)
RNA: B1 RNA with A26U, G27A, C28G, C29G, C30U, A31G
DNA 1: CAATCTGAATTCCGGTCTCCC
DNA 2: TGGTGGCTACGACGGGATT
B10: UCUGGCU (DNA:RNA)
RNA: B7 RNA with A27U, U28G, A29G, G30C, C31U
DNA 1: CAATCTGAATTCCGGTCTCCC
DNA 2: TGGTGGCTACGACGGGATT
B11: CGGUCCU (DNA:RNA)
RNA: B1 RNA with A26G, C28U, A31U
DNA 1: CAATCTGAATTCCGGTCTCCC
DNA 2: TGGTGGCTACGACGGGATT
B12: AACCUAG (DNA:RNA)
RNA: B1 RNA with C25A, G27C, C29U, C30A, A31G
DNA 1: CAATCTGAATTCCGGTCTCCC
DNA 2: TGGTGGCTACGACGGGATT
B13: UGGUUUA (DNA:RNA)
RNA: B1 RNA with C25U, A26G, C28U, C29U, C30U
DNA 1: CAATCTGAATTCCGGTCTCCC
DNA 2: TGGTGGCTACGACGGGATT
B14: CCCCUCA (DNA:RNA)
RNA: B1 RNA with A26C, G27C, C29U
DNA 1: CAATCTGAATTCCGGTCTCCC
DNA 2: TGGTGGCTACGACGGGATT
B15: CUCAGCA (DNA:RNA)
RNA: B1 RNA with A26U, G27C, C28A, C29G
DNA 1: CAATCTGAATTCCGGTCTCCC
DNA 2: TGGTGGCTACGACGGGATT
B16: GAUACUG (DNA:RNA)
RNA: B1 RNA with C25G, G27U, C28A, C30U, A31G
DNA 1: CAATCTGAATTCCGGTCTCCC
DNA 2: TGGTGGCTACGACGGGATT
B17: CCAAAGC (DNA:RNA)
RNA: B7 RNA with U25C, U28A
DNA 1: CAATCTGAATTCCGGTCTCCC
DNA 2: TGGTGGCTACGACGGGATT
B18: UGGCCCG (DNA:RNA)
RNA: B1 RNA with C25U, A26G, A31G
DNA 1: CAATCTGAATTCCGGTCTCCC
DNA 2: TGGTGGCTACGACGGGATT
B19: GCGCCGC (DNA:RNA)
RNA: B1 RNA with C25G, A26C, C30G, A31C
DNA 1: CAATCTGAATTCCGGTCTCCC
DNA 2: TGGTGGCTACGACGGGATT
B20: GAUGCUC (DNA:RNA)
RNA: B1 RNA with C25G, G27U, C28G, C30U, A31C
DNA 1: CAATCTGAATTCCGGTCTCCC
DNA 2: TGGTGGCTACGACGGGATT

Molecular target: T1, RBFOX1 RRM RbFoxmut (Fox-RRM*)
Test: EMSA; HiTS-Eq, 1 nM pool, 10 min; buffer printed only for the single-RNA assays: 10 mM Tris pH 7.5, 150 mM NaCl, 3.4 mM EDTA, 0.001% NP-40, 30 C
Details: tags: His6 N-terminal (pET28a); label: 5' 32P
In short: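 Purified RbFox RRM (wild type or mutant) was equilibrated for 10 min in 50 µL with 1 nM of a 5′-radiolabelled pool of RNA with 7 randomized nucleotides, its flanks annealed to DNA oligonucleotides, across increasing protein concentrations. Free RNA was separated by 8% native PAGE, excised, reverse-transcribed, PCR-barcoded and sequenced on an Illumina HiSeq 2500. Relative association constants came from read-count changes of each variant against the control reaction, normalised to the cognate motif.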

Binder	binding signal
B1	0.0935 KA relative to UGCAUGU
B2	0.0999 KA relative to UGCAUGU
B3	0.114 KA relative to UGCAUGU
B4	0.0756 KA relative to UGCAUGU
B5	0.0644 KA relative to UGCAUGU
B6	0.137 KA relative to UGCAUGU
B7	0.116 KA relative to UGCAUGU
B8	0.0812 KA relative to UGCAUGU
B9	0.12 KA relative to UGCAUGU
B10	0.0857 KA relative to UGCAUGU
B11	0.0605 KA relative to UGCAUGU
B12	0.0762 KA relative to UGCAUGU
B13	0.107 KA relative to UGCAUGU
B14	0.0989 KA relative to UGCAUGU
B15	0.149 KA relative to UGCAUGU
B16	0.116 KA relative to UGCAUGU
B17	0.0865 KA relative to UGCAUGU
B18	0.152 KA relative to UGCAUGU
B19	0.0958 KA relative to UGCAUGU
B20	0.0632 KA relative to UGCAUGU

From paper PMC9911399, “Two distinct binding modes provide the RNA-binding protein RbFox with extraordinary sequence specificity”
